According to the supplement of paper PMC3334620:
In all, about 33,000 sequences were measured (“E-score (-0.5 to 0.5)”: median about -0.032, highest 2% from about 0.36 on). The list shows a part of the results.

molecular target: T1, Sko1 (UniProt Q02100); experiment: PBM E-score (8-mer binding enrichment) (E-score (-0.5 to 0.5)); higher = stronger / more preferred TF binding; most listed sequences are background and not binding sites; conditions: protein concentration: 200 nM; construct: GST-full length
T1 sequence: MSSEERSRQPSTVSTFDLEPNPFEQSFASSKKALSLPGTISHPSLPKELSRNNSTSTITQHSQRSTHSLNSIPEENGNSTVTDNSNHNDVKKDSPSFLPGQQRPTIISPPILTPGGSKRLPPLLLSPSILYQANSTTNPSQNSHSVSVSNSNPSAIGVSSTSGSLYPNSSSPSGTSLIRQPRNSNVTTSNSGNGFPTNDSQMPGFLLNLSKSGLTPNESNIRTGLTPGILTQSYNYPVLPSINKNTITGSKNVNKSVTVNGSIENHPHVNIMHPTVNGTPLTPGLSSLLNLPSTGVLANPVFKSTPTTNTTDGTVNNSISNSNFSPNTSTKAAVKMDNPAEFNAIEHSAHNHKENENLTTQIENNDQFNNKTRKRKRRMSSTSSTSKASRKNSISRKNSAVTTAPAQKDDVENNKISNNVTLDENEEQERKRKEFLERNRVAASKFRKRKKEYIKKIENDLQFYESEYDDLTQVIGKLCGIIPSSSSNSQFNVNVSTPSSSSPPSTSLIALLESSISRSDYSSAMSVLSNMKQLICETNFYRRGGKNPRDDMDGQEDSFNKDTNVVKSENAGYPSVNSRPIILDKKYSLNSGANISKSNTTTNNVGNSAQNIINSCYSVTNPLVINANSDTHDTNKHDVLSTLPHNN
Experimental: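 Universal 'all 10-mer' protein binding microarrays (Agilent AMADID 015681) probed with GST-tagged S. cerevisiae TFs (full-length or DBD) made by in vitro transcription/translation (PURExpress), about 100-200 nM. Bound TF was detected with fluorescent anti-GST. Each ungapped 8-mer (which stands for itself and its reverse complement) is scored by the PBM enrichment score (E-score), a modified Wilcoxon-Mann-Whitney statistic from -0.5 to +0.5, computed with the Universal PBM Analysis Suite. Scale: above 0.35 generally sequence-specific binding.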

Sequence | PBM E-score
CTCTGGCA | -0.236
CTTTTACC | 0.11
TAAGATAA | 0.0619
CTGTTGTC | -0.0176
AATCAGCC | -0.108
TTCTTCAA | -1e-05
AGGGTACA | -0.068
ACAGGGTC | -0.166
ATCTTGAA | 0.0356
GTTTATGA | 0.214
CGTCTTAA | 0.209
ACGGTAGT | -0.0209
AAGGTGTC | -0.0366
GCCCACAC | -0.0849
AATAGGGG | -0.0991
CGCAGGAG | -0.087
CTATGCTC | -0.139
ATTAGGGA | -0.118
AAACGCTG | 0.00852
CTTCCTTC | -0.284
CATACTTC | 0.073
AGAAAGAT | 0.0566
GTAACCAC | 0.0486
TGCGGCAA | 0.0508
GCTGGCTA | -0.3

Sequence | PBM E-score
AAAACACG | 0.284
ATATGTAG | 0.0107
CCAGCGGG | -0.212
ATGCAGAA | 0.228
AGCTTAAC | 0.108
AGTTTTCC | -0.0135
GCAGTAAA | -0.0741
CCTTCTAA | -0.029
ATATCATG | 0.0825
CGAATACA | 0.0848
ATTATTAC | 0.308
CATGAATG | 0.1
ATGTGCAG | -0.0677
CCTAGGGC | -0.336
CACTTGTA | 0.118
TTAGAAAA | 0.0783
ACTTTTCG | 0.181
CTGAGCTA | -0.00141
TAACTGAA | 0.0502
GCAGTGCA | -0.179
ACCACGGA | -0.247
CACACAAA | 0.114
GTGCGCGA | 0.103
CAGTTCAC | -0.0413
AGAGGCAC | -0.136

Sequence | PBM E-score
ATATTGTG | 0.0398
ATTAACAG | 0.0259
GTCAGCTA | -0.0682
GTATGGCA | 0.128
ATGCCACG | 0.0587
CAGTATCA | 0.0286
GACAGTCC | -0.239
ACGACAAG | -0.029
AAAGTGAC | 0.224
CCTAGTCA | -0.192
CTTCGAGA | -0.0219
GTCAAAAA | 0.247
GCTTGGCA | 0.0666
TAAATATA | 0.307
ACTGGCCT | -0.155
CGCTGATA | 0.0496
ACGGCTGG | -0.389
CAGAGTAG | -0.152
ATGACATG | 0.357
ACAGGCGG | -0.246
AGGTACGG | -0.27
ATGAACCA | 0.134
ATCAGCAT | 0.0822
AAAAGTTT | 0.127
AAGTGGGC | 0.043

Sequence | PBM E-score
ACGAGGAG | 0.0533
CGACCTCA | 0.0616
CCCTACGA | 0.0951
CATGTGTC | 0.1
CCCAGAGA | -0.134
AATATACC | 0.0847
ACCATACC | -0.311
AGACTCGG | -0.305
ACTCCTAC | 0.0364
GCATAAGC | 0.0453
CTGCCCAC | -0.0529
ATACCAAG | 0.102
ACGTCGAC | 0.385
ACCACTCT | -0.169
CAACATTA | 0.305
TGCGAGAA | -0.0362
CCTACTAA | -0.18
CGAGCCCG | -0.396
ACTTATCG | -0.196
CCGGTTCC | -0.26
CCGTGGAA | -0.0689
CCTGGCAG | -0.155
CCCTAACC | -0.178
TATGCTGA | 0.222
ACTGCAAA | 0.0484

Sequence | PBM E-score
AAGGAAGT | -0.193
ATCTTGTG | -0.00506
CCCCGGCC | -0.33
CATAACCG | -0.248
CGCCTCGA | -0.228
ATCCTCAG | -0.0982
AACAAAGC | 0.19
AGTTTCAT | 0.0561
ACGCAAAA | 0.338
CCCCTACA | -0.184
GCAGCATA | -0.194
TACATTCA | 0.0715
CCACCGCA | -0.187
CCTTCCGA | -0.184
GGTTTTAC | -0.11
TGACGACA | 0.467
CCCGCGCA | -0.0135
TACAGACA | 0.105
GCACTGGC | -0.199
AACGGTAG | -0.134
ATGCTTAC | -0.0592
GATCGTGC | 0.016
CTTCGAAG | -0.208
GAAAAGCA | -0.104
CACCAGAC | 0.0607

Sequence | PBM E-score
CCGCCGCC | -0.184
GCAAGCAA | -0.0211
AATTGGAG | -0.114
CAAATTTA | 0.184
CATGCGAC | 0.0353
ACTCGTCC | 0.0764
GAGCACAA | -0.0865
GCGCGCGA | 0.0725
ACAGATGT | -0.0192
ACTTGGAG | -0.203
AGTCGACT | 0.213
ACTATGGC | -0.0461
AGGTTTGC | 0.0181
GGTGCGCA | 0.0886
ATTCGACG | 0.107
ATACCCAC | -0.121
AGTGTGGA | -0.0206
TATTCAAA | 0.134
GACGAAAC | 0.289
ACATTCCC | -0.0869
GCTTCACC | -0.184
CTCATCAG | -0.0173
ATGTTTAG | 0.0953
TCTCCCAA | -0.0838
CAGCGTGA | -0.0118

Sequence | PBM E-score
AGGACCGA | -0.108
AGGATTTA | 0.0641
AGTGTCAT | 0.231
AAGATAAA | 0.262
AAGCGGTA | -0.00885
ACGCGAGG | 0.0164
CCTCTATC | -0.203
ATGACACC | 0.26
ACTCCTAG | -0.345
GGGGCTGA | -0.139
TCGGAACA | 0.0966
AATGGACG | 0.338
GAGCGTCC | -0.104
AGAGTCGC | -0.0763
AAGGGCCT | -0.329
GAAACCGC | -0.0581
AATGTTGG | 0.014
ATTTAACG | 0.215
CGTAGCCC | 0.169
ACGTATCT | 0.419
CCAATGCC | -0.239
ATCGATTA | 0.183
